# In paper PMC8888634:
# Protein sequences, listed by entry. Tags and fused reporters are not part of them. Lines headed by an entry give the natural chain unless they say otherwise; changes in a name come on top.
# UniProt Q96FW1: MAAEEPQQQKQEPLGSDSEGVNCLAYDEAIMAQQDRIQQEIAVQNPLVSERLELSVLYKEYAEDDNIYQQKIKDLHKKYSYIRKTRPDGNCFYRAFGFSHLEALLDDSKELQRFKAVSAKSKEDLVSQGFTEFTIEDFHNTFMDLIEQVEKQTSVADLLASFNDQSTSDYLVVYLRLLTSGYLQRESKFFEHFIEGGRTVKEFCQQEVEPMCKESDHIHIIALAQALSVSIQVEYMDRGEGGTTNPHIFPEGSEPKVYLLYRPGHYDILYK
# UniProt P10275: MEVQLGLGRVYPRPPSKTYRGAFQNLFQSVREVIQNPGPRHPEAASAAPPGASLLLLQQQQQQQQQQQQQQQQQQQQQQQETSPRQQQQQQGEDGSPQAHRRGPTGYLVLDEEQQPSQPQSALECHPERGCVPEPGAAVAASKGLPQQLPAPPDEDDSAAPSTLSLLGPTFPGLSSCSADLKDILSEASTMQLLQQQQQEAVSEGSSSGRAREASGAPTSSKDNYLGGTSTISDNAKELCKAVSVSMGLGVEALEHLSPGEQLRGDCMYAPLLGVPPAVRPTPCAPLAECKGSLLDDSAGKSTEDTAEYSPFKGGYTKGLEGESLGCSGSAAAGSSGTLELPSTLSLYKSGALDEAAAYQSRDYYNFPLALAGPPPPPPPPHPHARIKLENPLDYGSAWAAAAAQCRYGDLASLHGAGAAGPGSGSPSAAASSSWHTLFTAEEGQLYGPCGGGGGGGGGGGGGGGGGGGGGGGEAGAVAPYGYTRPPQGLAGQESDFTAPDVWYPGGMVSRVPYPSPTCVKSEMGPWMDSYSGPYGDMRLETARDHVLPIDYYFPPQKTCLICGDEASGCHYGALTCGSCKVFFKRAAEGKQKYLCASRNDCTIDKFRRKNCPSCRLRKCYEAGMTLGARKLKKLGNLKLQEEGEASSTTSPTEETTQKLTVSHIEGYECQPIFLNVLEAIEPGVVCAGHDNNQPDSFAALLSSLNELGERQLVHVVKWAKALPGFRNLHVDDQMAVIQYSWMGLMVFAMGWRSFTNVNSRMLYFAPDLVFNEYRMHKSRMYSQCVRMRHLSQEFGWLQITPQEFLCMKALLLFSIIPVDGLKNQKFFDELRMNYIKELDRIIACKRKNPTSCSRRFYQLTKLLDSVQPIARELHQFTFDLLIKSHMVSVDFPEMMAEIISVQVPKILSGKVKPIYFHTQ
# UniProt P51532: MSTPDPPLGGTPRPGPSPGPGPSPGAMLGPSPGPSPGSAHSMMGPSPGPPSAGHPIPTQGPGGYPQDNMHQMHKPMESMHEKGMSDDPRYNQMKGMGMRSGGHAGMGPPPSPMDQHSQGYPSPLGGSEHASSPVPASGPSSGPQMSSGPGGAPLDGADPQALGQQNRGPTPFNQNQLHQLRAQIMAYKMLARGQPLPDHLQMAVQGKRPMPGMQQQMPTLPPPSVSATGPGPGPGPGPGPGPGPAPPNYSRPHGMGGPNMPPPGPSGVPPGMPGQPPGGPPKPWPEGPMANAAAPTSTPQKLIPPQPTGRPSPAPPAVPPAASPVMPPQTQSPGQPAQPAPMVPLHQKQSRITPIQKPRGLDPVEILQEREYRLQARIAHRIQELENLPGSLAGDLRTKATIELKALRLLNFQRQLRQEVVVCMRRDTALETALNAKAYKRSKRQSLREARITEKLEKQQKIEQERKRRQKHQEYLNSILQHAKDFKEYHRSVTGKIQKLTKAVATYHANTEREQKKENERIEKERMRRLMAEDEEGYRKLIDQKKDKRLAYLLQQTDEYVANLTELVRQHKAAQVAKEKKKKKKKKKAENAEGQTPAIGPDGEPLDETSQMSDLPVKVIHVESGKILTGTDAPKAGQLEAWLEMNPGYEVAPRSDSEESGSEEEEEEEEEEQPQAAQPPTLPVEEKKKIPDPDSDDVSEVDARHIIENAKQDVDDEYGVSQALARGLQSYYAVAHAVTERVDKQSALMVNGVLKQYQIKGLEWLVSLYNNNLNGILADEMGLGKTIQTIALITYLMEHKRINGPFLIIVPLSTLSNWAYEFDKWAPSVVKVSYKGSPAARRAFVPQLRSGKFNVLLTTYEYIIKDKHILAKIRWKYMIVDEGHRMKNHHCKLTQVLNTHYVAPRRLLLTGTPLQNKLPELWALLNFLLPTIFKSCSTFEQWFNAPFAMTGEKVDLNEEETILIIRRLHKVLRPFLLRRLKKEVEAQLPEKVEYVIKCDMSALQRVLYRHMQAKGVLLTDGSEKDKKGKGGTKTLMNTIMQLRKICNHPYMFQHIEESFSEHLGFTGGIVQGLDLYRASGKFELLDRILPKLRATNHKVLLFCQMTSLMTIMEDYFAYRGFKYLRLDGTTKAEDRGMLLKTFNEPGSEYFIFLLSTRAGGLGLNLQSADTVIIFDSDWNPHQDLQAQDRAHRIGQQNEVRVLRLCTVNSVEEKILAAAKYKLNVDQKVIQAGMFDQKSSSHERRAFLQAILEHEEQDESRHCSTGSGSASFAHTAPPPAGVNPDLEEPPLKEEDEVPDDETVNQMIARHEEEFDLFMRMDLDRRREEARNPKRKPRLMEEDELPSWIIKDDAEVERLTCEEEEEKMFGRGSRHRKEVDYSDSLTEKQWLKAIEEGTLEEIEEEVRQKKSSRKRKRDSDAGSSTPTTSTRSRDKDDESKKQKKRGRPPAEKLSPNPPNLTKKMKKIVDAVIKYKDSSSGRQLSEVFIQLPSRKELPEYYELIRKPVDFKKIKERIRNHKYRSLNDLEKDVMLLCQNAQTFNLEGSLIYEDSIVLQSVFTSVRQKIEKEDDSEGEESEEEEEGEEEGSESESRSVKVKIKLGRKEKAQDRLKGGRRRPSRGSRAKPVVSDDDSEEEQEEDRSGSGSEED
# These are yes or no findings as the source states them, for the method shown. Binding seen in cells or lysates may run through a third protein. Some entries that bind do so weakly or less than the wild type. For part of these data: Where a sequence is shown, tags or fusion partners need not be part of it.
# How the values were obtained:
# [1] = biological target: T1, OTUD6A, endogenous in prostate cancer cells (human (endogenous in VCaP)) (UniProt Q7L8S5); test: co-IP; IP-IB analysis in other prostate cancer cell lines, including PC-3, LNCaP and C4-2 (Supplementary Fig. 4d, e)
# T1 sequence: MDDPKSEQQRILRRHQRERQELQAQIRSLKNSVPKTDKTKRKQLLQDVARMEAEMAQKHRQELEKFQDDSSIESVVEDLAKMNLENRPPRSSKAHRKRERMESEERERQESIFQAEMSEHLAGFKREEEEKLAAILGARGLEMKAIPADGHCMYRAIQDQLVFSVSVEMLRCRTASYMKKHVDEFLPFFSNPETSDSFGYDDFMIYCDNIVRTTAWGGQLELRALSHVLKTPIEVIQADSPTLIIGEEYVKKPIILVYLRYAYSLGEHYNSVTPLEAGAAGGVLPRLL
# [2] = biological target: T1, OTUD6A, endogenous in prostate cancer cells (human (endogenous in VCaP)); test: co-IP; endogenous proteins, VCaP cells; anti-OTUD6A or anti-Brg1, anti-AR antibodies, IgG as negative control; lysis in EBC buffer (50 mM Tris pH 8.0, 120 mM NaCl, 0.5% NP-40), overnight at 4 °C, washes with NETN buffer; immunoblot
# [3] = biological target: T2, OTUD6A-C-terminus, as used in the GST pull-down (human) (UniProt Q7L8S5); test: pull-down; in vitro GST pull-down with OTUD6A-N-terminus, -C-terminus and -full length; immunoblot
# T2 sequence: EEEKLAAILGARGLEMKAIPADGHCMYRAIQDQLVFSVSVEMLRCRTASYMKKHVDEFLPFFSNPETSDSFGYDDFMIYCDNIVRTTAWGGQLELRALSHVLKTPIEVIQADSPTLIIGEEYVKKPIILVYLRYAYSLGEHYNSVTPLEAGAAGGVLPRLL
# [4] = biological target: T3, OTUD6A-N-terminus, as used in the GST pull-down (human) (UniProt Q7L8S5); test: as above
# T3 sequence: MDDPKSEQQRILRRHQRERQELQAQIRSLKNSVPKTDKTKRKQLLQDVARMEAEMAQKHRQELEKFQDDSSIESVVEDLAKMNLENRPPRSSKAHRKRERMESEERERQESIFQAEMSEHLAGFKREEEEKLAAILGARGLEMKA
# [5] = biological target: T4, OTUD6A N-terminus, as used in the co-IP assay (Supplementary Fig. 4f) (human) (UniProt Q7L8S5); test: co-IP; co-IP of the N-terminus and C-terminus of OTUD6A with Brg1 and AR (Supplementary Fig. 4f); cells and tags not shown
# T4 sequence: T3 sequence
# [6] = biological target: Flag-OTUB1, expressed in 293T cells (UniProt Q96FW1); test: co-IP; 293T cells transfected with HA-tagged Brg1 or AR (whole or fragments) and Flag-tagged OTU family members; IB of WCLs and IPs; lysis in EBC buffer, washes with NETN buffer
# [7] = biological target: T5, Flag-OTUD6A (pcDNA3.1-Flag-OTUD6A), expressed in 293T cells (human) (UniProt Q7L8S5); test: as above
# T5 sequence: T1 sequence
substance,measurement,setting,value
"AR (androgen receptor), endogenous in prostate cancer cells (from UniProt P10275 1-920)",binding,[1],binds
same,binding,[2],binds
"AR, as used in the GST pull-down (from UniProt P10275 1-920) (receptor)",binding,[3],no binding
same,binding,[4],binds
"Brg1, as used in the GST pull-down (from UniProt P51532 1-1647)",binding,[3],no binding
same,binding,[4],binds
"Brg1, the ATPase subunit of the SWI/SNF chromatin remodeling complex, endogenous in prostate cancer cells (from UniProt P51532 1-1647)",binding,[1],binds
same,binding,[2],binds
"HA-AR (pcDNA3.1-HA-AR), expressed in 293T cells (from UniProt P10275 1-920) (receptor)",binding,[5],binds
same,binding,[6],binds
same,binding,[7],binds
"HA-Brg1 (pCMV5-HA-Brg1), expressed in 293T cells (from UniProt P51532 1-1647)",binding,[5],binds
same,binding,[7],binds
"HA-tagged C-terminal domain of Brg1 (amino acids 1301-1647), expressed in 293T cells (from UniProt P51532 1301-1647) (domain or fragment)",binding,[7],binds
"HA-tagged LBD (ligand-binding domain) of AR (amino acids 670-920), expressed in 293T cells (from UniProt P10275 670-920) (domain or fragment)",binding,[7],binds
